Assay results reported in the supplement of paper PMC8728848.
Some of the results follow.

Tests used:
Assay in all cases: glycan array binding signal (z-score within array); higher = stronger binding
Details in all cases: glycan notation: IUPAC condensed, linker removed
[1] = target: Gal(b1-4)GlcNAc(b1-3)Gal(b1-4)GlcNAc(b1-3)Gal(b1-4)GlcNAc(b1-2)Man(a1-3)[Gal(b1-4)GlcNAc(b1-3)Gal(b1-4)GlcNAc(b1-3)Gal(b1-4)GlcNAc(b1-2)Man(a1-6)]Man(b1-4)GlcNAc(b1-4)GlcNAc
Method in brief: (§1)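 The binding signal is a Z-score computed within each array. Data were drawn from 3228 arrays in the Consortium for Functional Glycomics database, restricted to those with a known protein sequence. Scores were averaged over arrays of the same protein sequence at different concentrations or buffers, and over linkers, and negative values can be taken as non-binding.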

[2] = target: Gal(b1-4)GlcNAc(b1-3)Gal(b1-4)GlcNAc(b1-3)Gal(b1-4)GlcNAc(b1-2)Man(a1-3)[Gal(b1-4)GlcNAc(b1-3)Gal(b1-4)GlcNAc(b1-3)Gal(b1-4)GlcNAc(b1-2)Man(a1-6)]Man(b1-4)GlcNAc(b1-4)[Fuc(a1-6)]GlcNAc
Method in brief: as §1

[3] = target: Gal(b1-4)GlcNAc(b1-3)Gal(b1-4)GlcNAc(b1-3)Gal(b1-4)GlcNAc(b1-2)[Gal(b1-4)GlcNAc(b1-3)Gal(b1-4)GlcNAc(b1-3)Gal(b1-4)GlcNAc(b1-6)]Man(a1-6)[Gal(b1-4)GlcNAc(b1-3)Gal(b1-4)GlcNAc(b1-3)Gal(b1-4)GlcNAc(b1-2)Man(a1-3)]Man(b1-4)GlcNAc(b1-4)[Fuc(a1-6)]GlcNAc
Method in brief: as §1

[4] = target: Gal(b1-4)GlcNAc(b1-3)Gal(b1-4)GlcNAc(b1-3)Gal(b1-4)GlcNAc(b1-3)Gal(b1-4)GlcNAc(b1-2)Man(a1-3)[Gal(b1-4)GlcNAc(b1-3)Gal(b1-4)GlcNAc(b1-3)Gal(b1-4)GlcNAc(b1-3)Gal(b1-4)GlcNAc(b1-2)Man(a1-6)]Man(b1-4)GlcNAc(b1-4)GlcNAc
Method in brief: as §1

[5] = target: Gal(b1-4)GlcNAc(b1-3)Gal(b1-4)GlcNAc(b1-3)Gal(b1-4)GlcNAc(b1-3)Gal(b1-4)GlcNAc(b1-2)Man(a1-3)[Gal(b1-4)GlcNAc(b1-3)Gal(b1-4)GlcNAc(b1-3)Gal(b1-4)GlcNAc(b1-3)Gal(b1-4)GlcNAc(b1-2)Man(a1-6)]Man(b1-4)GlcNAc(b1-4)[Fuc(a1-6)]GlcNAc
Method in brief: as §1

[6] = target: Gal(b1-4)GlcNAc(b1-3)Gal(b1-4)GlcNAc(b1-3)Gal(b1-4)GlcNAc(b1-3)Gal(b1-4)GlcNAc(b1-2)[Gal(b1-4)GlcNAc(b1-3)Gal(b1-4)GlcNAc(b1-3)Gal(b1-4)GlcNAc(b1-3)Gal(b1-4)GlcNAc(b1-6)]Man(a1-6)[Gal(b1-4)GlcNAc(b1-3)Gal(b1-4)GlcNAc(b1-3)Gal(b1-4)GlcNAc(b1-3)Gal(b1-4)GlcNAc(b1-2)Man(a1-3)]Man(b1-4)GlcNAc(b1-4)[Fuc(a1-6)]GlcNAc
Method in brief: as §1

[7] = target: Gal(b1-4)GlcNAc(b1-3)Gal(b1-4)GlcNAc(b1-3)Gal(b1-4)GlcNAc(b1-3)Gal(b1-4)GlcNAc(b1-3)Gal(b1-4)GlcNAc(b1-2)Man(a1-3)[Gal(b1-4)GlcNAc(b1-3)Gal(b1-4)GlcNAc(b1-3)Gal(b1-4)GlcNAc(b1-3)Gal(b1-4)GlcNAc(b1-3)Gal(b1-4)GlcNAc(b1-2)Man(a1-6)]Man(b1-4)GlcNAc(b1-4)GlcNAc
Method in brief: as §1

[8] = target: Gal(b1-4)GlcNAc(b1-3)Gal(b1-4)GlcNAc(b1-3)Gal(b1-4)GlcNAc(b1-3)Gal(b1-4)GlcNAc(b1-3)Gal(b1-4)GlcNAc(b1-2)Man(a1-3)[Gal(b1-4)GlcNAc(b1-3)Gal(b1-4)GlcNAc(b1-3)Gal(b1-4)GlcNAc(b1-3)Gal(b1-4)GlcNAc(b1-3)Gal(b1-4)GlcNAc(b1-2)Man(a1-6)]Man(b1-4)GlcNAc(b1-4)[Fuc(a1-6)]GlcNAc
Method in brief: as §1

[9] = target: Gal(b1-4)GlcNAc(b1-3)Gal(b1-4)GlcNAc(b1-3)Gal(b1-4)GlcNAc(b1-3)Gal(b1-4)GlcNAc(b1-3)Gal(b1-4)GlcNAc(b1-2)[Gal(b1-4)GlcNAc(b1-3)Gal(b1-4)GlcNAc(b1-3)Gal(b1-4)GlcNAc(b1-3)Gal(b1-4)GlcNAc(b1-3)Gal(b1-4)GlcNAc(b1-6)]Man(a1-6)[Gal(b1-4)GlcNAc(b1-3)Gal(b1-4)GlcNAc(b1-3)Gal(b1-4)GlcNAc(b1-3)Gal(b1-4)GlcNAc(b1-3)Gal(b1-4)GlcNAc(b1-2)Man(a1-3)]Man(b1-4)GlcNAc(b1-4)[Fuc(a1-6)]GlcNAc
Method in brief: as §1

[10] = target: Gal(b1-4)GlcNAc(b1-3)Gal(b1-4)GlcNAc(b1-3)Gal(b1-4)GlcNAc(b1-3)Gal(b1-4)GlcNAc(b1-3)Gal(b1-4)GlcNAc(b1-3)Gal(b1-4)GlcNAc(b1-2)Man(a1-3)[Gal(b1-4)GlcNAc(b1-3)Gal(b1-4)GlcNAc(b1-3)Gal(b1-4)GlcNAc(b1-3)Gal(b1-4)GlcNAc(b1-3)Gal(b1-4)GlcNAc(b1-3)Gal(b1-4)GlcNAc(b1-2)Man(a1-6)]Man(b1-4)GlcNAc(b1-4)GlcNAc
Method in brief: as §1

[11] = target: Gal(b1-4)GlcNAc(b1-3)Gal(b1-4)GlcNAc(b1-3)GalNAc
Method in brief: as §1

[12] = target: Gal(b1-4)GlcNAc(b1-3)Gal(b1-4)GlcNAc(b1-3)[Gal(b1-4)GlcNAc(b1-3)Gal(b1-4)GlcNAc(b1-6)]GalNAc
Method in brief: as §1

[13] = target: Gal(b1-4)GlcNAc(b1-3)Gal(b1-4)GlcNAc(b1-6)[Gal(b1-3)]GalNAc
Method in brief: as §1

[14] = target: Gal(b1-4)GlcNAc(b1-3)Gal(b1-4)[Fuc(a1-3)]GlcNAc(b1-3)Gal(b1-4)[Fuc(a1-3)]GlcNAc
Method in brief: as §1

[15] = target: Gal(b1-4)GlcNAc(b1-3)GalNAc
Method in brief: as §1

[16] = target: Gal(b1-4)GlcNAc(b1-3)[Fuc(a1-3)GlcNAc(b1-6)]Gal(b1-4)Glc
Method in brief: as §1

[17] = target: Gal(b1-4)GlcNAc(b1-3)[Gal(b1-4)GlcNAc(b1-6)]Gal(b1-4)GlcNAc
Method in brief: as §1

[18] = target: Gal(b1-4)GlcNAc(b1-3)[GlcNAc(b1-6)]Gal(b1-4)GlcNAc
Method in brief: as §1

[19] = target: Gal(b1-4)GlcNAc(b1-6)Gal(b1-4)GlcNAc
Method in brief: as §1

B1: PX15618B-bfa-464-25-464 (Bacteroides fragilis) (protein)
chain: DQEPPLYVNENDIFTSPTRIEATLNGLYAAIKNTGTKSLMGGKSYLVFDNRGDDVINISNNLVTLFNTYNMNVGITDAENADTWTYAYLAINKVNTFLQSLEGAREVAGENYDRYVQEAKFVRALAYYYLNNLYPTPYSVNPDAKSVPLRLTAEAGTENNNMPRSTVKQIYEHILSDLENISALDTEVNTYTGVTHATQAAANMLKMRVYMAMNEWDKAITAGELVTGYSLPEDVTLIYKAPYFSQESIFSLPMADTNIPNTQQSLAEYYYDGKIMLIDTKSGIMSKPDYSLATDKRIIAFKGEKDLLMKFTDAKTKLQWVPIFRYAETLLDLAECYANKAGGEATAKSLLKQVRGRSVDAATDPLNIDNLSGDALKEAIYNEKRLEFIGEGIRGIDIMRRGEHFIKVGENETINVGPSDEKYTWPIPQVELLLNKDINK
B1 was tested, and the “glycan array binding signal (z-score)” value [1] was 0.659, the “glycan array binding signal (z-score)” value [2] was -0.112 and the “glycan array binding signal (z-score)” value [3] was 0.138. For the same binder, the “glycan array binding signal (z-score)” value [4] was 0.837, the “glycan array binding signal (z-score)” value [5] was 0.871 and the “glycan array binding signal (z-score)” value [6] was 0.086. The “glycan array binding signal (z-score)” value [7] was 0.222, the “glycan array binding signal (z-score)” value [8] was 0.468 and the “glycan array binding signal (z-score)” value [9] was 19.3. The “glycan array binding signal (z-score)” value [10] was 0.717, the “glycan array binding signal (z-score)” value [11] was -0.382 and the “glycan array binding signal (z-score)” value [12] was 0.24. The “glycan array binding signal (z-score)” value [13] was 0.36, the “glycan array binding signal (z-score)” value [14] was 0.289 and the “glycan array binding signal (z-score)” value [15] was -0.204. For the same binder, the “glycan array binding signal (z-score)” value [16] was 0.311, the “glycan array binding signal (z-score)” value [17] was -0.16 and the “glycan array binding signal (z-score)” value [18] was -0.037. The “glycan array binding signal (z-score)” value [19] was 0.086.
